Source: PMC7861413
Results are given in words; binding and its absence hold for the method and conditions named. Binding seen in cells or lysates may run through a third protein. Some binding calls cover weakened binding; strength is not graded here.

Chains of the proteins cited; added tags and fusions are not shown. Residues count along the entry.
UniProt P07237, residues 18-508: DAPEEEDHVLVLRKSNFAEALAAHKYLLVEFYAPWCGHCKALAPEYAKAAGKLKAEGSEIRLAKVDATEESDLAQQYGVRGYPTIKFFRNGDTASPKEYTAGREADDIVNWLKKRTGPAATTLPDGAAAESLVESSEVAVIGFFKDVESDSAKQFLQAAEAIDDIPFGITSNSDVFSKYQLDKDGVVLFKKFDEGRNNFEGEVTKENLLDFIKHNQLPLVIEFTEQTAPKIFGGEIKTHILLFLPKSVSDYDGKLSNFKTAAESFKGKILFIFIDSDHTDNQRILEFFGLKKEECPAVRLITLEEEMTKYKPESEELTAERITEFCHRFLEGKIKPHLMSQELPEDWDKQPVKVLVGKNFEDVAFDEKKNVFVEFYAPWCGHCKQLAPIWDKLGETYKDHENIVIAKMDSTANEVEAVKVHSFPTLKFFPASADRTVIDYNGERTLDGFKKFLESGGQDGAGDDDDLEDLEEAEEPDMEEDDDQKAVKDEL

How the values were obtained:
[1] = target: Hypoxia-inducible factor-1alpha (HIF-1alpha) (human (endogenous in Hep3B)) (UniProt Q16665); assay: co-IP; cytosol fraction of Hep3B cells, hypoxia 4 h or 6 h; anti-HIF-1alpha antibody; immunoblot for PDI
[2] = target: T1, endoplasmic reticulum oxidoreductin-1 (Ero-1) (human (endogenous in Hep3B)) (UniProt Q96HE7); assay: co-IP; Hep3B cell extracts, hypoxia 6 h; Ero-1 immunoprecipitated (by the text), immunoblot for HIF-1alpha, PDI and Ero-1
T1 sequence: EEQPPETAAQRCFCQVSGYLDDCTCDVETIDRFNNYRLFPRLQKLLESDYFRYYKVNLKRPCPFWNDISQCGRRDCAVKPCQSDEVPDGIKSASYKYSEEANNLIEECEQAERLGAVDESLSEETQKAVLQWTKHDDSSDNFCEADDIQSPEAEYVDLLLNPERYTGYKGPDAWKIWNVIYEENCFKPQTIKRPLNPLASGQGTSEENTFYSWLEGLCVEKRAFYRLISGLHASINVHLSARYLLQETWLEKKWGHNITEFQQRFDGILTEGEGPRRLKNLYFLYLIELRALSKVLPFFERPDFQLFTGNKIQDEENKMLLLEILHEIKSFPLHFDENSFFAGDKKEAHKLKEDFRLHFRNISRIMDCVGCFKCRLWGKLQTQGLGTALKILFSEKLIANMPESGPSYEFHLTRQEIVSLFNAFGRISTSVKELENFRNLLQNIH

[3] = target: Hypoxia-inducible factor-1alpha (HIF-1alpha) (human (endogenous in Hep3B)) (UniProt Q16665); assay: co-IP; Hep3B cell extracts (hypoxia 6 h; or hypoxia 8 h with NH4Cl, with or without overexpression of PDI WT or PDI C53, 397S); anti-HIF-1alpha antibody, Protein A-Sepharose, 4°C; 50 mM Tris-HCl pH 7.5, 150 mM NaCl, 0.5% Nonidet P-40; immunoblot
[4] = target: HIF-1alpha (1–245 aa), Myc-tagged (human) (UniProt Q16665); assay: co-IP; extracts of Hep3B cells overexpressing HIF-1alpha 1–245 aa with or without PDI, 8 h with NH4Cl; anti-Myc antibody; immunoblot with anti-Myc or anti-HSC70 antibody

Row | binding [1] | binding [2] | binding [3] | binding [4] | Substance
1 | binds | binds | binds | – | Protein disulfide isomerase (PDI) (from UniProt P07237 18-508) (enzyme)
2 | – | no binding | – | – | Hypoxia-inducible factor-1alpha (HIF-1alpha) (from UniProt Q16665-1 1-826)
3 | – | – | binds | binds | heat shock cognate 70 kDa protein (HSC70) (from UniProt P11142 1-646)
